The source of these data is article PMC5800818 (2018).

A word on the Kd: it is the free concentration of one partner at which half of the binding sites on the other are occupied at equilibrium, for simple one-to-one binding. Read a low Kd as tighter binding.

Holding throughout (assay): FP
Assay [1] addresses PTBi harboring the F162V mutation (human, UniProt P49757 20-175, F162V).
For assay [2], the target named is PTBi-K/EE (R69E-K70E-K73E-K78E substitutions) (human, UniProt P49757 20-175, R69E | K70E | K73E | K78E).
The target of assay [3] is PTBi-G/A (G74A-G77A substitutions) (human, UniProt P49757 20-175, G74A | G77A).
The target in assay [4] is PTBi mutant in the adjacent Lys81-Lys82 (human, UniProt P49757 20-175).

B1: rhodamine-labeled Mdm2^[…] (domain or fragment)
chain: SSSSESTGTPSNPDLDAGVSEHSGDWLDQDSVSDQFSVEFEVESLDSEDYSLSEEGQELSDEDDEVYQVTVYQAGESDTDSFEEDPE
modifications: rhodamine label (site not stated)
Regarding B1, the dissociation constant (Kd) in assay [1] is 4.2 µM; in assay [2], 224 µM; in assay [3], 4.5 µM; in assay [4], 37.5 µM.
